The source of these data is ChEMBL document CHEMBL4888484, “Replenishing the malaria drug discovery pipeline: Screening and hit evaluation of the MMV Hit Generation Library 1 (HGL1) against asexual blood stage Plasmodium falciparum ,using a nano luciferase reporter read-out” (2022).

About 540 (0.36%) of roughly 150,000 compounds showed an effect of 50% or more. The list shows a part of the results.

Usually % Inhibition stands for the drop in the measured response relative to a control, in per cent.

The assay deals with Plasmodium falciparum. In words: Primary screen in NF54 nanoGlo assay, in single point, at 2uM, 72h; a lower Z score goes with more inhibition. Type of assay: functional, Erythrocyte. Conditions: timepoint 72 hour.
As to `CC(C)(C(=O)O)c1cnc(NCCN2CCOCC2)nc1N1CCOCC1`, the “% Inhibition” value was 0% and the Z score is -0.02.

In the case of `C[C@H]1CCOCCN1C(=O)c1ccc(-c2cnn(C)c2)o1`, the “% Inhibition” value is given as 4% and the Z score was -0.69.

As for `O=C(OC[C@H]1CCCO1)c1cnn2c(C(F)(F)F)cc(-c3ccccc3)nc12`, the “% Inhibition” value is recorded as -15% and the Z score is 2.19.

`c1ccc(-c2nc(NC3CCCC3)c3oc(-c4ccccc4)nc3n2)cc1`: the “% Inhibition” value was -7% and the Z score was 0.89.

Take `Cn1cc(-c2ccc3c(c2)OCC[C@H]2CN(C(=O)COc4ccccc4)CC[C@H]2CC(=O)N3)cn1`: the “% Inhibition” value is on record as -14% and the Z score turned out to be 1.84.

Turning to `C[C@@H](CNc1cnc2ccccc2n1)N1CCOCC1`, the “% Inhibition” value was 20% and the Z score is given as -2.58.

In the case of `CC(C)c1noc([C@H](C)NC(=O)Cc2c[nH]c(=O)n(C)c2=O)n1`, the “% Inhibition” value is -14% and the Z score was determined as 1.85.

As to `CN1CCc2c(c3ccccc3n2Cc2ccccn2)C1`, the “% Inhibition” value is listed as -7% and the Z score was found to be 0.86.

For the molecule `O=C(N[C@H]1CCO[C@H](c2cccnc2)C1)c1ccc(OC(F)F)nc1`, the “% Inhibition” value was -3% and the Z score came out at 0.69.

With `CC[C@@H](CC1CCCCC1)C(=O)Nc1c(C(F)F)n[nH]c1C`, the “% Inhibition” value came out at 18% and the Z score is listed as -2.35.

Consider `CCCc1nnc(CN[C@](C)(COC)CC(=O)OC)s1`, for which the “% Inhibition” value is reported as -8% and the Z score worked out at 0.98.

Take `CO[C@@]12CC[C@H](OCCO)C[C@@H]1N(Cc1ccc(F)c(F)c1F)CC2`: the “% Inhibition” value worked out at 14% and the Z score was -1.98.

Take `CC[C@@H]1OC2(CCN(C(=O)CC3=CCCCC3)CC2)NC1=O`: the “% Inhibition” value stood at 7% and the Z score was -1.17.

Consider `O=C(OCc1ccccc1)N1CCN(c2nc3ccccc3c3nnc(-c4ccccc4Cl)n23)CC1`, for which the “% Inhibition” value is on record as -11% and the Z score is 1.7.

For `CCn1ccc2c(cc(C(=O)Nc3ccccc3Cl)n2C)c1=O`, the “% Inhibition” value is -13% and the Z score came to 1.22.

Take `Cc1nc2ncnn2c(O)c1Oc1ccc(N)cc1`: the “% Inhibition” value is -8% and the Z score is 1.38.

For `COc1ccc(F)cc1-c1cncc(CN2CCOCC2)c1`, the “% Inhibition” value is listed as -1% and the Z score is listed as 0.17.

Consider `Cc1cc(CNC(=O)[C@@H]2CCC[C@@H](NC(=O)C(C)(C)C)CN(C)C(=O)C2)no1`, for which the “% Inhibition” value is reported as -11% and the Z score came out at 1.46.

Consider `O=C(CC1CCCC1)N1CCC[C@H]1c1nc2ccccc2s1`, for which the “% Inhibition” value is -10% and the Z score is reported as 1.32.

On to `CC(C)(C)OC(=O)N1CC2CC1CCC2=O` (stereo unspecified), for which the “% Inhibition” value is reported as -3% and the Z score was found to be 0.51.

Regarding `C[C@@H](Cc1ccsc1)NC(=O)c1cnc(-c2cccnc2)nc1`, the “% Inhibition” value is reported as -15% and the Z score came out at 1.75.

Consider `COC1CCN(c2cc([C@H]3CCOC3)nc(N)n2)CC1`, for which the “% Inhibition” value is -5% and the Z score was 0.9.

Consider `CCc1ncnc(O[C@H]2CCN(C(=O)CC3CC3)C2)c1F`, for which the “% Inhibition” value is -7% and the Z score is recorded as 1.16.

With `CN(C)C(=O)[C@H](NC(=O)OC(C)(C)C)c1ccccc1Cl`, the “% Inhibition” value is -6% and the Z score is on record as 0.72.

With `COc1ccc([C@H](CNC(=O)C2CCN(S(=O)(=O)c3ccccc3F)CC2)N2CCCCC2)cc1`, the “% Inhibition” value is reported as -15% and the Z score came to 1.57.

On to `O=C(NCC1CC1)c1ccc2c(=O)n3c(nc2c1)CCCCCC3`, for which the “% Inhibition” value is recorded as -8% and the Z score is 0.78.

`CCc1nc2ccc(NC(=O)N3CCOC[C@@H]3CNS(C)(=O)=O)cc2s1`: the “% Inhibition” value is listed as 0% and the Z score was -0.02.

For `CCC1CCCN(C(=O)C2(C)CC2(Cl)Cl)C1` (stereo unspecified), the “% Inhibition” value came to 1% and the Z score is listed as -0.12.

In the case of `CC(C)Nc1cccc(CNC(=O)C2(C(=O)O)CC3CCC2C3)c1` (stereo unspecified), the “% Inhibition” value was found to be 1% and the Z score is -0.19.

On to `N#Cc1ccc(S(=O)(=O)Nc2cnn(-c3ccccc3)n2)cc1`, for which the “% Inhibition” value worked out at 15% and the Z score is -1.68.

`Cc1cccc(CS(=O)(=O)N2C3C=CCC2CC3)c1` (stereo unspecified): the “% Inhibition” value is recorded as -25% and the Z score is reported as 4.29.

Take `O=C(Nc1nnc(-c2cccs2)o1)c1ccc2c(c1)OCCO2`: the “% Inhibition” value is -14% and the Z score turned out to be 2.55.

`CN(CCNC(=O)c1ccc(-c2ccnc(N3CCCC3)n2)cc1)C1CCCCC1`: the “% Inhibition” value was -15% and the Z score is listed as 1.94.

As to `COCc1nc(NC2CCC(NC(=O)c3cccc(F)c3)CC2)c2c(C)nn(-c3ccccc3)c2n1` (stereo unspecified), the “% Inhibition” value was 2% and the Z score is on record as -0.35.

Regarding `CCN(CC)C(=O)c1c2c(cn(-c3ccc(Cl)cc3)c1=O)C(=O)CC(C)(C)C2`, the “% Inhibition” value is -10% and the Z score is given as 1.08.

As for `CC(C)(C)C(=O)N1CCC[C@H](Oc2ccncc2Cl)C1`, the “% Inhibition” value is 2% and the Z score is listed as -0.28.

For the molecule `COc1ccc(C(=O)N2CC3CC2CO3)cc1OC` (stereo unspecified), the “% Inhibition” value was -17% and the Z score came out at 2.02.

For the molecule `Cc1ccc(CN(Cc2ccc(C(O)(c3ccc(F)cc3)c3ccc(F)cc3)o2)CC(C)C)o1`, the “% Inhibition” value was -10% and the Z score is on record as 1.22.

On to `CC(C)N1C(=O)C[C@H](NC(=O)Nc2nc3c(s2)CCC3(C)C)C1=O`, for which the “% Inhibition” value is given as -6% and the Z score is 1.15.

On to `CC(C)(C)NC(=O)CN1CCC(CNc2ncc(Cl)cn2)CC1`, for which the “% Inhibition” value is on record as -2% and the Z score was determined as 0.45.

For the molecule `Cn1c(CN2CCCC2)nnc1[C@H]1CCCN(c2cc(N)nc(N)n2)C1`, the “% Inhibition” value is -9% and the Z score is 1.86.

On to `CN(C)c1ccc(NC(=O)N2CCN(c3ccccc3O)CC2)nc1`, for which the “% Inhibition” value is recorded as -9% and the Z score was determined as 1.66.

`Cc1ccc(NC(N)=O)c(Br)c1`: the “% Inhibition” value was 1% and the Z score is recorded as -0.09.

In the case of `CC(=O)N(C)CCc1noc([C@@H]2NCCOc3ccccc32)n1`, the “% Inhibition” value is -4% and the Z score is reported as 0.73.

In the case of `Cc1ncc(C(=O)N2CCC(CCCc3ccccc3)CC2)c(O)n1`, the “% Inhibition” value is given as -1% and the Z score came to 0.12.

For `Fc1ccccc1CN1CCN(Cc2nnc3n2CCCCC3)CC1`, the “% Inhibition” value is on record as -3% and the Z score is reported as 0.39.

As to `O=C(C[C@]1(c2ccccc2)CC(=O)N(Cc2ccc3c(c2)OCO3)C1=O)N1CCc2ccccc2C1`, the “% Inhibition” value was determined as 13% and the Z score is listed as -1.7.

For `O=S1(=O)CCC[C@H](NCc2cnn3ccccc23)C1`, the “% Inhibition” value is reported as -5% and the Z score came out at 0.49.

On to `COC1CCCCC1NC(=O)NCCN(C)C(C)C` (stereo unspecified), for which the “% Inhibition” value is -3% and the Z score is 0.47.

On to `Cc1ccc(S(=O)(=O)C2(C(=O)NCc3ccc(N4CCCC4=O)cc3)CCCC2)cc1C`, for which the “% Inhibition” value is listed as -11% and the Z score was found to be 2.07.

Take `O=S(=O)(NCCOc1ccccc1F)c1ccc2ccccc2c1`: the “% Inhibition” value was -2% and the Z score turned out to be 0.36.

`O=C(COc1ccc(Cl)cc1Cl)N[C@H](c1cccnc1)C1CCOCC1`: the “% Inhibition” value is given as -5% and the Z score came out at 0.89.

On to `Cc1ccc(Cn2c(=O)n(CCNC(=O)[C@H]3CCOC3)c3ncccc32)cc1`, for which the “% Inhibition” value is listed as -12% and the Z score is 2.01.
